{"source": "paper PMC4336329", "about": "(PLoS ONE, 2015)", "note": "In all, about 310,000 compounds went through this assay and about 2,200 (0.71%) showed an effect of 50% or more. Effects have a minus sign here. The list shows a part of the results."}
{"molecular_target": "human ether-à-go-go-related gene (hERG) potassium channel (human, UniProt Q12809)", "sequence (Q12809 whole entry, looked up)": "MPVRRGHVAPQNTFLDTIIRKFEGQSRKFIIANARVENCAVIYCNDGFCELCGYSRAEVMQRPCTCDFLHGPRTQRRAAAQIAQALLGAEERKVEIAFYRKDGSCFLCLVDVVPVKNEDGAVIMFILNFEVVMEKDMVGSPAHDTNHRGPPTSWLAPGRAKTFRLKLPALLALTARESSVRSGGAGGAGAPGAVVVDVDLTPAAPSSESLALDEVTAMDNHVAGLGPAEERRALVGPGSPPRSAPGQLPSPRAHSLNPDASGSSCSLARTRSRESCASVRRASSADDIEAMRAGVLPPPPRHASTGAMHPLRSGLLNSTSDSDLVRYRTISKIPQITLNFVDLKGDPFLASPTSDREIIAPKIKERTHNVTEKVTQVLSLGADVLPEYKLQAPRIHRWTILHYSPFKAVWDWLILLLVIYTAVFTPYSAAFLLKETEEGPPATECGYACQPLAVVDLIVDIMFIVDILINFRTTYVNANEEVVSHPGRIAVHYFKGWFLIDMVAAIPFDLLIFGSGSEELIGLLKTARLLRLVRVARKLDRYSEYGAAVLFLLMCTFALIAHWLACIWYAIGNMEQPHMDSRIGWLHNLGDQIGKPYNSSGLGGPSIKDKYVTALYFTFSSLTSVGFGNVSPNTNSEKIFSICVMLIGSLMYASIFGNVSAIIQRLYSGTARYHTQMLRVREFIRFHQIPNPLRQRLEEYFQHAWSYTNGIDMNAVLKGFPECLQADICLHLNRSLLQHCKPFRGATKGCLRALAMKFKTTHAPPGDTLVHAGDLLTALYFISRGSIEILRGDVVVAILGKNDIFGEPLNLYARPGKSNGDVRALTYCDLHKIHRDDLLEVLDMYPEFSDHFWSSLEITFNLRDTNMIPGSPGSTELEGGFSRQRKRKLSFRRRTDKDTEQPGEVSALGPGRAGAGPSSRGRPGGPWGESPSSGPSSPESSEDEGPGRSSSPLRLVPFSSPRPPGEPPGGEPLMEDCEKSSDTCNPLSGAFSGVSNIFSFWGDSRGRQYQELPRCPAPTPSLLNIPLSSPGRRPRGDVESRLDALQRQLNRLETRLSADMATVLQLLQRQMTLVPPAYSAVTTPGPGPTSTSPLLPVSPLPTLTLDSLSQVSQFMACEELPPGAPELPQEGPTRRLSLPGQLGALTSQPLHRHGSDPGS", "assay": "primary screen, population patch clamp on CHO cells stably expressing hERG", "units": {"hERG current change (%, negative = inhibition) at 1uM": "%"}}
{"smiles": "CCOc1ccc(CCNC(=O)CN2C(=O)NC3(CCCCCC3)C2=O)cc1OCC", "hERG current change (%, negative = inhibition) at 1uM": 10.8}
{"smiles": "CCOCCCNC(=S)N1CCN(Cc2ccc3c(c2)OCO3)CC1.O=C(O)C(=O)O", "hERG current change (%, negative = inhibition) at 1uM": 8.76}
{"smiles": "O=C(Nc1cc(-c2nc3ccccc3s2)ccc1Cl)c1ccc2c(c1)OCO2", "hERG current change (%, negative = inhibition) at 1uM": 10.7}
{"smiles": "CNc1cc(NS(=O)(=O)c2ccc(N)cc2)nc(NC)n1.Cl", "hERG current change (%, negative = inhibition) at 1uM": -17.3}
{"smiles": "COC(=O)C1=C(c2c(C)noc2C)C[C@@H]2CC[C@H]1N2C(=O)N1CCOCC1", "hERG current change (%, negative = inhibition) at 1uM": 8.64}
{"smiles": "COc1ccc(C(CCN(Cc2ccc(OC)c(OC)c2)C(C)=O)c2ccccc2)cc1", "note": "(centres unmarked)", "hERG current change (%, negative = inhibition) at 1uM": 2.9}
{"smiles": "COCC(C)NC(=O)COc1ccc(Cl)cc1Cl", "note": "(centres unmarked)", "hERG current change (%, negative = inhibition) at 1uM": 14}
{"smiles": "CCc1ccc(N2CC(C(=O)Nc3ccc(S(=O)(=O)Nc4nccs4)cc3)CC2=O)cc1", "note": "(centres unmarked)", "hERG current change (%, negative = inhibition) at 1uM": 5.98}
{"smiles": "COc1cccc(NC(=O)c2cc(CN3C(=O)c4ccccc4C3=O)ccc2OC)c1", "hERG current change (%, negative = inhibition) at 1uM": 5.82}
{"smiles": "Cc1cccc(NC(=O)N(Cc2cc3cc(C)ccc3[nH]c2=O)CC2COCCO2)c1", "note": "(centres unmarked)", "hERG current change (%, negative = inhibition) at 1uM": 4.81}
{"smiles": "CCN1C(=O)C(CC(=O)Nc2ccc(Cl)cc2)N(NC(=O)c2ccncc2)C1=S", "note": "(centres unmarked)", "hERG current change (%, negative = inhibition) at 1uM": 12.2}
{"smiles": "O=C(C1CCCCC1)N1CCN(c2ccccc2F)CC1", "hERG current change (%, negative = inhibition) at 1uM": 9.54}
{"smiles": "CCOC(=O)N1CCN(c2c(-c3ccc(C)c(C)c3)c(=O)c2=O)CC1", "hERG current change (%, negative = inhibition) at 1uM": 14.8}
{"smiles": "O=C(c1cc(Br)ccc1Cl)N1CCC2(CC1)OCCO2", "hERG current change (%, negative = inhibition) at 1uM": -4.85}
{"smiles": "O=C(CN1C(=O)c2ccccc2C1=O)OCc1nc2ccsc2c(=O)[nH]1", "hERG current change (%, negative = inhibition) at 1uM": 18}
{"smiles": "CCn1cc(CN2CCCC(CNC(=O)COc3ccccc3OC)C2)c(C)n1", "note": "(centres unmarked)", "hERG current change (%, negative = inhibition) at 1uM": 16.3}
{"smiles": "CC1Cc2ccccc2N1Cc1cccc([N+](=O)[O-])c1", "note": "(centres unmarked)", "hERG current change (%, negative = inhibition) at 1uM": 9.32}
{"smiles": "CC(=O)C1=C(O)C(=O)N(CC#N)C1c1cccs1", "note": "(centres unmarked)", "hERG current change (%, negative = inhibition) at 1uM": 15.9}
{"smiles": "CCc1ccc(-c2c(C)sc(NC(=O)C3CCC3)c2C#N)cc1", "hERG current change (%, negative = inhibition) at 1uM": 11.1}
{"smiles": "O=C(O)C1CCCCC1C(=O)Nc1ccc(-c2ccccc2)cc1", "note": "(centres unmarked)", "hERG current change (%, negative = inhibition) at 1uM": 13.6}
{"smiles": "COc1cc2c(cc1OC)C(C(=O)NCC1COc3ccccc3O1)C(c1cccnc1)N(C)C2=O", "note": "(centres unmarked)", "hERG current change (%, negative = inhibition) at 1uM": 0.42}
{"smiles": "Cc1cc(C)cc(OC(=O)CCN2C(=O)C3C4C=CC(C5CC45)C3C2=O)c1", "note": "(centres unmarked)", "hERG current change (%, negative = inhibition) at 1uM": 3.58}
{"smiles": "Cn1c(SCC(=O)N2CCCC2=O)nnc1-c1ccccc1F", "hERG current change (%, negative = inhibition) at 1uM": 10.3}
{"smiles": "FC(F)C(F)(F)C1=CC(c2ccccc2)=NCCN1", "hERG current change (%, negative = inhibition) at 1uM": -5.03}
{"smiles": "Cc1nc2scc(-c3cccs3)c2c(=O)o1", "hERG current change (%, negative = inhibition) at 1uM": 3.08}
{"smiles": "Cc1cccnc1NC(=O)/C=C/c1ccc2c(c1)OCO2", "hERG current change (%, negative = inhibition) at 1uM": 1.18}
{"smiles": "COc1ccc(C2=NN(C(=O)CCC(=O)O)C(c3cccs3)C2)cc1", "note": "(centres unmarked)", "hERG current change (%, negative = inhibition) at 1uM": 4.11}
{"smiles": "CCCCC(=O)N1CCN(c2ccc(OC)cc2[N+](=O)[O-])CC1", "hERG current change (%, negative = inhibition) at 1uM": -54.5}
{"smiles": "O=S(=O)(NCc1ccco1)N1CCCCCC1", "hERG current change (%, negative = inhibition) at 1uM": 7.13}
{"smiles": "Cc1ccc(C)c(N2CCN(CCCNC(=O)CCC(=O)N3CCOc4ccc(Cl)cc43)CC2)c1", "hERG current change (%, negative = inhibition) at 1uM": 2.27}
{"smiles": "O=C(O)C(=O)O.O=S(=O)(c1ccc(F)cc1)N1CCC(N2CCCC2)CC1", "hERG current change (%, negative = inhibition) at 1uM": 3.58}
{"smiles": "O=C(COc1ccc2c3c(c(=O)oc2c1)CCC3)Nc1ccccn1", "hERG current change (%, negative = inhibition) at 1uM": 13.7}
{"smiles": "O=C(O)c1cc([N+](=O)[O-])ccc1NCCc1ccccc1", "hERG current change (%, negative = inhibition) at 1uM": 13.2}
{"smiles": "Cc1ccc(OCC(=O)N2CCCC(CO)(CCOc3ccccc3)C2)cc1", "note": "(centres unmarked)", "hERG current change (%, negative = inhibition) at 1uM": 8.76}
{"smiles": "Cc1nn(CC(=O)NCC2CCCO2)c(C)c1[N+](=O)[O-]", "note": "(centres unmarked)", "hERG current change (%, negative = inhibition) at 1uM": 18.8}
{"smiles": "COc1ccccc1CNC(=O)CCN1C(=O)c2ccccc2C1=O", "hERG current change (%, negative = inhibition) at 1uM": 11.8}
{"smiles": "O=C1C=CCC(/C=C/c2ccccc2)O1", "note": "(centres unmarked)", "hERG current change (%, negative = inhibition) at 1uM": 17.4}
{"smiles": "CCOC(=O)CCCCC(=O)c1[nH]c(=O)[nH]c1CSc1nnc2c3cc(Br)ccc3n(C)c2n1", "hERG current change (%, negative = inhibition) at 1uM": 10.1}
{"smiles": "Cc1ccc(C)c(C(C)NC(=O)C2C3CCC(O3)C2C(=O)O)c1", "note": "(centres unmarked)", "hERG current change (%, negative = inhibition) at 1uM": 14.4}
{"smiles": "N#C/C(=C\\c1ccc(-c2ccccc2[N+](=O)[O-])o1)C(=O)Nc1nc(-c2cccs2)cs1", "hERG current change (%, negative = inhibition) at 1uM": 4.92}
{"smiles": "c1ccc(-c2nc3c([nH]2)CCc2nonc2-3)cc1", "hERG current change (%, negative = inhibition) at 1uM": 19.7}
{"smiles": "CC(=O)c1cccc(NC(=O)C2C3C=CC(C3)C2C(=O)O)c1", "note": "(centres unmarked)", "hERG current change (%, negative = inhibition) at 1uM": -5.87}
{"smiles": "Cc1nn(Cc2ccccc2)c2c1C(c1cccnc1)C(C#N)=C(N)O2", "note": "(centres unmarked)", "hERG current change (%, negative = inhibition) at 1uM": -8.47}
{"smiles": "Cc1cccc(C)c1NC(=S)/C(=C(\\[O-])c1cccs1)[n+]1ccccc1", "hERG current change (%, negative = inhibition) at 1uM": 2.6}
{"smiles": "O=C(OCC(=O)N1CCN(c2ccccc2)CC1)c1ccc(Cl)cc1[N+](=O)[O-]", "hERG current change (%, negative = inhibition) at 1uM": -5.98}
{"smiles": "O=C(O)c1ccc(-n2nnnc2SCc2ccccc2F)cc1", "hERG current change (%, negative = inhibition) at 1uM": 16.5}
{"smiles": "Cc1nn(CC(=O)NC2CCC(C)CC2)c(C)c1[N+](=O)[O-]", "note": "(centres unmarked)", "hERG current change (%, negative = inhibition) at 1uM": 1.38}
{"smiles": "O=C(C1CCC(CNc2c(N3CCCCC3)c(=O)c2=O)CC1)N1CCN(c2ccccn2)CC1", "note": "(centres unmarked)", "hERG current change (%, negative = inhibition) at 1uM": 4.44}
{"smiles": "Cc1c(N=C/C=C/c2ccccc2)cnn1C", "hERG current change (%, negative = inhibition) at 1uM": -4.78}
{"smiles": "Cc1cc(C(=O)OCC(=O)c2c(N)n(C)c(=O)n(C)c2=O)c(C)n1-c1ccccc1", "hERG current change (%, negative = inhibition) at 1uM": 5.19}
{"smiles": "COc1cc(OC)cc(C(=O)N/N=C/c2ccc(OC)c(COc3ccc(F)cc3)c2)c1", "hERG current change (%, negative = inhibition) at 1uM": 6.55}
{"smiles": "COc1ccc(OC)c(NS(=O)(=O)c2ccc(NC(C)=O)cc2)c1", "hERG current change (%, negative = inhibition) at 1uM": 10.5}
{"smiles": "CC(C)(O)C#CC#CCN1CCOCC1", "hERG current change (%, negative = inhibition) at 1uM": 2.47}
{"smiles": "COc1ccccc1C(=O)NC(CCSC)C(=O)NCC(c1cccs1)N1CCOCC1", "note": "(centres unmarked)", "hERG current change (%, negative = inhibition) at 1uM": -10.8}
{"smiles": "CCC(C)N=CC1=C(O)C(C(=O)OC)C(C)(C)CC1=O", "note": "(centres unmarked)", "hERG current change (%, negative = inhibition) at 1uM": -1.88}
{"smiles": "O=C(Nc1nc(-c2cc(F)ccc2F)cs1)C1=NN(c2ccccc2)C(=O)CC1", "hERG current change (%, negative = inhibition) at 1uM": 8.56}
